Assay results taken from PubChem BioAssay AID760 (NMMLSC, 2007).
In all, about 190,000 compounds went through this assay and about 360 (0.19%) were called active. Inconclusive results, whose numbers are uncertain, are shown with a selection of clear calls.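 The calls were made as follows: active = GTP binding activity at least 20 points away from 100%, either lowered or raised; inconclusive = signal likely due to the compound's own green fluorescence; inactive = the rest.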

Biological target: Ras-related protein Rab-2A (Canis lupus familiaris) (UniProt P61105)
Assay: Rab2 wt fluorescent GTP binding changes, either direction – biochemical, dog, bead-based flow cytometry, multiplex, primary screen (AID 760);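 also: 0% = beads with excess unlabeled GTP and 100% = no-compound control corrected for plate trend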
Conditions: GST-Rab2 wt beads, Bodipy-GTP binding, at 10 µM

GTP binding activity, active:
O=c1c2c(-c3ccccc3)csc2nc2c3ccccc3c(NCCN3CCOCC3)nn12 65%, NC(=O)c1cc2nc(-c3ccco3)cc(C(F)(F)F)n2n1 63%, Cn1cc(C=C2C(=O)CC(C)(C)CC2=O)c2ccccc21 32%, O=c1c2ccccc2nc2c3ccccc3c(NCc3cccnc3)nn12 72%, O=C(Cc1csc(Nc2nc(=S)[nH]c3ccccc23)n1)NCCCN1CCN(c2cccc(Cl)c2)CC1 78%, CCOC(=O)c1cc(C(=O)OCC)c(=O)[nH]c1N1CCCC1 54%

GTP binding activity, inconclusive:
COc1ccc(OC)c(NC(=O)c2ccc(CN3CCOCC3)cc2)c1 104%, CCOC(=O)c1ccc(-n2c(C)ccc2C)cc1 96%, Cc1ccc(C(=O)Oc2coc(CSc3nnc(NC(=O)c4cccs4)s3)cc2=O)cc1C 87%, CCCCCCn1c(Br)nc2c1c(=O)n(C)c(=O)n2C 93%, CC12CCC(C(=O)NCCCn3ccnc3)(OC1=O)C2(C)C (configuration not stated) 112%, COc1ccc(-c2cc(C3CC3)nc3sc(C#N)c(N)c23)cc1 94%, COc1cc(C(=S)N2CCCC2)ccc1O 88%, Cc1noc(NS(=O)(=O)c2ccc(N/C=C/C(=O)c3ccc4c(c3)OCO4)cc2)c1C 89%, Cc1ccc(NCc2nnc(SCC(=O)Nc3cccc(O)c3)n2CC2CCCO2)c(C)c1 (configuration not stated) 101%, O=C1CSC(=S)N1/N=C/c1ccc(O)c([N+](=O)[O-])c1 89%, Fc1ccc(C2CC(c3cccs3)=NN2c2ccccc2)cc1 (configuration not stated) 91%, COc1ccc(OC)c(CNC(=O)CCNC(=O)Cn2ccc3ccccc3c2=O)c1 105%, O=C(Nc1ccccc1C(=O)N1CCOCC1)C1CCC(=O)N1C1CCCC1 (configuration not stated) 264%, Cc1ccc(C(=C2C3C=CC2C2C(=O)NC(=O)C32)c2ccc(C)cc2)cc1 (configuration not stated) 105%, CC(CN1CCOCC1)OC(=O)c1ccccc1Br (configuration not stated) 101%, O=C(O)c1ccc(/C=N/NC(=O)c2cc(-c3cccs3)nc3ccccc23)cc1 90%, COc1cccc(/C=C/C(=O)c2cccc([N+](=O)[O-])c2)c1OC 94%, O=C(O)c1ccc(N2C(=O)CC(N3CCC(c4nc5ccccc5[nH]4)CC3)C2=O)cc1 (configuration not stated) 91%, COc1ccc(-c2cc(C(F)(F)F)n3nc(C(=O)NCc4ccco4)cc3n2)cc1OC 84%, Cc1cccc(C(=O)N(c2ccccn2)C(C)c2ccco2)c1 (configuration not stated) 92%, Cc1ccnc(NC(=O)/C=C/c2cccs2)c1 192%, O=C(/C=C/c1c(F)cccc1Cl)Nc1ncccn1 103%, COCC(C)NC(=O)c1cc(-c2ccccc2OC)on1 (configuration not stated) 104%, Cc1nc(N/N=C/c2ccccc2)nc(N(C)c2ccccc2)c1[N+](=O)[O-] 112%, O=C(NC1CCCCCC1)c1cc(S(=O)(=O)N2CCCCC2)ccc1N1CCOCC1 100%, Cc1cc(C)nc(/N=C(\N)Nc2ccccc2-c2ccccc2)n1 97%, Cc1ccc(OCCC(=O)Nc2ccc(F)c(Cl)c2)cc1 94%, CCOCCCNC(=O)c1ccc(N2CCOCC2)c(NS(=O)(=O)c2ccc(OC)cc2)c1 92%, O=C(NC1CCCCCC1)C(=S)NCCc1ccccc1 93%, Cn1c2c(c(=O)n(C)c1=O)C(c1ccc(O)cc1)Nc1ccccc1O2 (configuration not stated) 94%, CCN1C(=O)/C(=C\c2ccc(-c3ccc([N+](=O)[O-])cc3OC)o2)SC1=Nc1cccc(C(=O)O)c1 86%, CCCCN(CCCC)c1nc(OC)nc(-n2nnc(C(C)=O)c2C)n1 94%, O=C(c1cccs1)n1nc(-c2ccccc2)nc1NCc1ccco1 96%, O=C(N/N=C/c1coc2ccccc2c1=O)c1cccc([N+](=O)[O-])c1 92%, O=c1c2c(-c3ccccc3)csc2nc2n1CCC2 90%, O=S(=O)(Nc1cccc(-c2cn3ccsc3n2)c1)c1ccc(F)cc1 91%, CCN(CC)CCOC(=O)c1c(C)n(C)c2ccc(OC)cc12 103%, CCCN(c1nc(C)cc(OC)n1)S(=O)(=O)c1ccccc1 94%, N#CCc1nn(-c2ccc(F)cc2)c(N)c1C#N 82%, CC(C)c1cc(NCc2ccccn2)n2c(nc3ccccc32)c1C#N 76%, O=C(Nc1ccc(Br)cc1)c1csc(-c2ccncc2)n1 91%, COC(=O)CCNS(=O)(=O)c1ccc2ccccc2c1 95%, O=S(=O)(c1ccc2nc(SCc3cccc(Cl)c3)[nH]c2c1)N1CCOCC1 94%, COc1cccc(OCCOCCN(C)CCO)c1 103%, O=[N+]([O-])c1ccc2nc(-c3ccc(Cl)cc3)n(OCc3ccccc3)c2c1 102%, COc1ccc(Cn2c(=O)[nH]c3cc(C(=O)NC4CCN(Cc5ccccc5)CC4)ccc32)cc1 96%, CCCCn1c(CNC(C)=O)nc2ccccc21 102%, COc1ccc(CCNC(=O)CSc2ccsc2[N+](=O)[O-])c(OC)c1 85%, COc1ccc(-c2csc3ncn(-c4ccc(C)cc4)c(=O)c23)cc1OC 97%, Cc1ccc(-c2nnn(CC(=O)N(c3ccc4c(c3)OCCO4)C(C(=O)NCC3CCCO3)c3ccc(F)cc3)n2)o1 (configuration not stated) 94%, CCOc1ccc(NC(=O)CC2C(=O)Nc3ccccc3N2C(=O)c2ccccc2)cc1 (configuration not stated) 94%, CCC(CC)C1=NN2C(=N)/C(=C\c3cc(C)n(-c4cccc(C)c4)c3C)C(=O)N=C2S1 78%, CCOC(=O)C1=NN(c2ccccc2)C(=O)/C1=C\c1ccc(N(C)C)cc1 87%

GTP binding activity, inactive:
COc1ccc(NC(=O)COC(=O)c2ccc(OCc3c(C)noc3C)cc2)cc1OC 100%, CCOCCCn1c(SCC(=O)Nc2ccc(C(N)=O)cc2)nc2ccccc2c1=O 108%, COc1cc(C(=O)N2CCC(O)(c3ccccc3)CC2)cc(OC)c1OC 94%, N#CCCn1cc(C(N)=O)c(-c2cccs2)n1 94%, Cc1csc(NC(=O)CSc2nnc3c4ccccc4nc(C(C)(C)C)n23)n1 101%, COC(=O)c1c(N2C(=O)[C@H]3[C@@H](C2=O)[C@]2(C(=O)Nc4ccccc42)N2CCC[C@@H]32)sc(C)c1C 102%, CCOC(=O)C(=O)N1CCC(C(=O)OC)CC1 103%, CCCOC(=O)CC1C(=O)NCCN1C(=O)OC(C)(C)C (configuration not stated) 96%, Cc1ccc(C)c(/C=N/NC(=S)NC(C)C)c1 96%, C=CCN(CC=C)CC(O)CN(c1cc([N+](=O)[O-])ccc1OC)S(=O)(=O)c1ccccc1 (configuration not stated) 102%, CCn1c(=O)[nH]c2cc(C(=O)Nc3cc(C)cc(C)c3)ccc2c1=O 93%, O=C(NCc1ccco1)C(=O)NCC(c1ccco1)N1CCOCC1 (configuration not stated) 98%, CCOC(=O)c1c(NC(=O)COC(=O)c2nc(Cl)ccc2Cl)sc2c1CCC2 101%, Cc1cc(Cl)c(S(=O)(=O)Nc2ccccn2)cc1OCC(N)=O 99%, CN1c2ccsc2C(O)=C(C(=S)Nc2ccc(F)c(Cl)c2)S1(=O)=O 99%, CC(OC(=O)C1CC1)C(=O)Nc1cc(C(F)(F)F)ccc1Cl (configuration not stated) 99%, Cc1cccc(C)c1NC(=O)C(c1ccc([N+](=O)[O-])cc1)N(C)C(=O)c1ccccn1 (configuration not stated) 97%, O=S(=O)(Nc1ncccn1)c1ccc(-n2cnnn2)cc1 97%, Cc1ccc(CN2CCN(Cc3cccn3-c3nccs3)CC2CCO)cc1 (configuration not stated) 97%, CC(=O)Oc1c(-c2ccco2)oc2ccccc2c1=O 93%, COc1ccccc1C(=O)Nc1nc(-c2ccc3c(c2)OCCO3)cs1 81%, CN(C)S(=O)(=O)c1ccc(NC(=O)COC(=O)C2COc3ccccc3O2)cc1 (configuration not stated) 95%, CCOC(=O)c1ccc(NC(=O)N2CCN(Cc3ccccc3)CC2)cc1 98%, O=C(CSc1ncnc2ccccc12)NCC(=O)c1ccccc1 97%, O=C(NCc1cc(Br)cc(Br)c1OC(=O)c1ccccc1[N+](=O)[O-])c1ccccc1 98%, Cc1nonc1OCCn1c([N+](=O)[O-])cnc1C 98%, CC(=O)Nc1ccc(-c2nnn(CC(=O)Nc3ccc4c(c3)OCO4)n2)cc1Cl 99%, O=C(COc1ncnc2cc([N+](=O)[O-])ccc12)NCCc1ccc(Cl)cc1 80%, COc1ccc(C(=O)C2CCCN(Cc3c[nH]c4ccccc34)C2)c(OC)c1 (configuration not stated) 97%, c1ccc(CN(Cc2ccccc2)c2nn[nH]n2)cc1 92%, CCOC(=O)/C(N=Nc1ccc2c(c1)OCO2)=C(\C)O 94%, CSc1nc2ccc(NC(=O)c3cc4ccccc4o3)cc2s1 96%, Clc1ccc(Cn2ncc3c(N4CCCC4)ncnc32)cc1 100%
